# According to the BET-seq Pho4 binding data (Le et al. 2018):
# The other results are listed elsewhere or left out. Values were computed here from the reads of four pooled replicates and scatter widely.
# Target: T1, Pho4 (S. cerevisiae) (UniProt P07270)
# T1 sequence: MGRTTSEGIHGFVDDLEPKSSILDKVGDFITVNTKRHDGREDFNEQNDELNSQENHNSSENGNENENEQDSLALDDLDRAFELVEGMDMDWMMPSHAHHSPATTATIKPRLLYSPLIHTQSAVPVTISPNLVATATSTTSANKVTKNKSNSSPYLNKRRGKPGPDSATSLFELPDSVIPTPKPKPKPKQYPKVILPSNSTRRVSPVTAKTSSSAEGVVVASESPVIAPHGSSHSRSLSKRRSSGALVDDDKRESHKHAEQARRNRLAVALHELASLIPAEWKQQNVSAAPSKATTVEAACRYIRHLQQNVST
# Experiment: relative binding free energy (BET-seq); higher = weaker binding
# Conditions: reference: library average
row,Sequence,relative binding free energy
1,TGGCACACGTGTGAGG,0.669 kJ/mol
2,TGTATCACGTGATTTT,1.17 kJ/mol
3,ATATGCACGTGATTTC,0.418 kJ/mol
4,TAGAACACGTGGGTTG,-0.753 kJ/mol
5,TGGGGCACGTGACTTT,-0.209 kJ/mol
6,TTACACACGTGCGGGT,-0.0837 kJ/mol
7,TGGCTCACGTGCGATT,0.795 kJ/mol
8,GGGTTCACGTGCAGTG,1.59 kJ/mol
9,GGTATCACGTGTTACA,0.795 kJ/mol
10,AGCGACACGTGGGTTG,-0.126 kJ/mol
11,TGGATCACGTGTCGTC,1.13 kJ/mol
12,AAACGCACGTGGTTTT,-0.251 kJ/mol
13,TTGGGCACGTGTTGTA,-0.377 kJ/mol
14,AAGTTCACGTGGTAGT,1.3 kJ/mol
15,TCGGGCACGTGAGCTT,1.26 kJ/mol
16,TGGTTCACGTGTATCT,0.753 kJ/mol
17,ATTAGCACGTGAATAG,0.628 kJ/mol
18,TTTGGCACGTGGCTTG,-0.418 kJ/mol
19,GTAAGCACGTGGGGGA,-0.628 kJ/mol
20,GCGTGCACGTGGTGGA,-0.0837 kJ/mol
21,ATTTACACGTGGGTTG,0.0837 kJ/mol
22,ATTGGCACGTGGATTC,0.544 kJ/mol
23,TTTTGCACGTGTGTTT,0.46 kJ/mol

row,Sequence,relative binding free energy
1,GCTTTCACGTGGGAAT,0.753 kJ/mol
2,GGATTCACGTGGTGCG,1.55 kJ/mol
3,CGTTGCACGTGGCGTT,-0.167 kJ/mol
4,GGGATCACGTGTCTTT,1.13 kJ/mol
5,GTGTGCACGTGGGCAG,-0.46 kJ/mol
6,GACAGCACGTGAGGGT,0.46 kJ/mol
7,GGGTTCACGTGTCTTC,1.92 kJ/mol
8,CTTCACACGTGTGTAG,0.628 kJ/mol
9,TTAAGCACGTGTTATT,0.126 kJ/mol
10,GTTTCCACGTGTTAGA,1.38 kJ/mol
11,GGTCGCACGTGGTATG,-0.753 kJ/mol
12,TTGTGCACGTGATGCT,0.377 kJ/mol
13,AGAGTCACGTGAAAAG,1.59 kJ/mol
14,GGTTGCACGTGCGGCA,-0.335 kJ/mol
15,TGGTTCACGTGTAGGC,1.34 kJ/mol
16,ATGGACACGTGGGCAT,-0.586 kJ/mol
17,TTAGACACGTGCTAGT,0.418 kJ/mol
18,TGTGGCACGTGGTAAA,-0.628 kJ/mol
19,AGTATCACGTGTCGGA,0.879 kJ/mol
20,TGAGTCACGTGTTGTT,0.669 kJ/mol
21,TCGTTCACGTGTGAGT,0.92 kJ/mol
22,GATATCACGTGGAAGG,0.669 kJ/mol
23,TCTATCACGTGGTGAT,0.335 kJ/mol

row,Sequence,relative binding free energy
1,TATTACACGTGTGGGC,0.669 kJ/mol
2,AGGTCCACGTGTTGGT,0.0418 kJ/mol
3,GAAGGCACGTGCGTGT,-0.335 kJ/mol
4,AAGGTCACGTGGATAG,0.335 kJ/mol
5,GTGGTCACGTGTGGGA,0.879 kJ/mol
6,TTGGGCACGTGGCATG,-0.753 kJ/mol
7,TTTTGCACGTGTTAGT,0.0418 kJ/mol
8,TGGTGCACGTGTTCGG,-0.251 kJ/mol
9,AGGTGCACGTGGTAAA,0.209 kJ/mol
10,TCGTTCACGTGTGTGT,1.26 kJ/mol
11,ATGGTCACGTGGGTCC,0 kJ/mol
12,TGGCGCACGTGAGATG,1.05 kJ/mol
13,GGGTTCACGTGGGGGT,0.962 kJ/mol
14,ATTGGCACGTGTTAAG,-0.418 kJ/mol
15,TGTGCCACGTGAAGTT,0.544 kJ/mol
16,GGCATCACGTGTGATG,1.3 kJ/mol
17,GGGTGCACGTGGTTAG,-0.251 kJ/mol
18,ATAGGCACGTGCATGG,-1.09 kJ/mol
19,TTGGTCACGTGTATAA,0.544 kJ/mol
20,AATTTCACGTGGTCGG,1.34 kJ/mol
21,TTTTTCACGTGCAGTT,0.879 kJ/mol
22,CTATGCACGTGGGTGA,-0.669 kJ/mol
23,GTTAACACGTGATCTG,0.962 kJ/mol

row,Sequence,relative binding free energy
1,GGTTTCACGTGAGTGA,1.26 kJ/mol
2,GAGGGCACGTGTGATT,0.126 kJ/mol
3,GTGTACACGTGCATTG,0.293 kJ/mol
4,TGTTACACGTGAAGGA,0.879 kJ/mol
5,ACATGCACGTGCTGGG,-0.46 kJ/mol
6,GCGGTCACGTGTGCAG,0.669 kJ/mol
7,GATTCCACGTGGGAGT,0.251 kJ/mol
8,TTTGACACGTGGGAGC,-0.335 kJ/mol
9,TGTTACACGTGTGCGG,0.335 kJ/mol
10,AATTCCACGTGTTGTT,0.418 kJ/mol
11,TGTATCACGTGCGGTC,0.167 kJ/mol
12,TGTCACACGTGGAGAT,0.669 kJ/mol
13,AGAGTCACGTGTGGGC,0.628 kJ/mol
14,GTTGTCACGTGAGGCG,1.34 kJ/mol
15,TACGACACGTGTGTGT,-0.167 kJ/mol
16,TAGGGCACGTGGGTTA,-1 kJ/mol
17,GATTTCACGTGAGCTG,1.3 kJ/mol
18,AACTGCACGTGTGGTT,-0.46 kJ/mol
19,TATATCACGTGGATTT,0.92 kJ/mol
20,ATAGGCACGTGTGATG,-0.418 kJ/mol
21,TCTCTCACGTGTTGGA,1.26 kJ/mol
22,TGTTTCACGTGATGTC,1.88 kJ/mol
23,AGGGGCACGTGAGGTT,0.544 kJ/mol

row,Sequence,relative binding free energy
1,GAGGGCACGTGGTTCT,-0.46 kJ/mol
2,TATTACACGTGAGAGG,1.72 kJ/mol
3,TGGGTCACGTGGGACT,0.502 kJ/mol
4,GCGGTCACGTGTGAGG,1.09 kJ/mol
5,TAGCGCACGTGTCGTG,0.0418 kJ/mol
6,TACTTCACGTGAAGGG,1.38 kJ/mol
7,GGCTGCACGTGGGCGC,-0.46 kJ/mol
8,TTTTTCACGTGGTAGG,1.67 kJ/mol
9,GATGGCACGTGTCTGG,-0.0837 kJ/mol
10,TGGGGCACGTGTCTTC,-0.293 kJ/mol
11,ATAGACACGTGTGGTC,0.0837 kJ/mol
12,CTTCTCACGTGTGTTG,0.711 kJ/mol
13,TTTACCACGTGGATGT,0.126 kJ/mol
14,CATTGCACGTGGAAGT,0.669 kJ/mol
15,AATTACACGTGTGTGA,0.711 kJ/mol
16,GGCTGCACGTGTTTTT,0.251 kJ/mol
17,TGGGTCACGTGGAAGT,1.13 kJ/mol
18,GGTTACACGTGTCAAG,0.669 kJ/mol
19,AAGGTCACGTGTTTGT,0 kJ/mol
20,GAGGCCACGTGGTTAG,-0.209 kJ/mol
21,GGCTTCACGTGGAATT,1.8 kJ/mol
22,ATTTGCACGTGAATTC,1.51 kJ/mol
23,AGCGTCACGTGGTTGA,0.126 kJ/mol
